This list was built around the results that the source calls inconclusive (neither active nor inactive); the mix of calls is not that of the screen. Where the call is inconclusive, the potency comes from a doubtful curve fit. Calls of active or inactive are those of the source. The call rests on the fitted dose curve; in most records, active means well fitted curve in the direction sought with a large enough effect; inconclusive means small, poorly fitted or top-dose-only effect, or another doubt; inactive means no such curve, though single readings can be large; an effect the other way counts as inactive or inconclusive.
How the values were obtained:
[1] = P-glycoprotein substrates identified in KB-8-5-11 adenocarcinoma cell line, qHTS therapeutic library screen (AID 1346987); further: nearly all actives have a fitted effect of over 65% in size; on activity change, negative = cytotoxicity: on the % scale 0 is the no-effect control and ±100 the full control effect
In short: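 Steps: plate 500 KB-8-5-11 cells/well in DMEM + 10% FCS (colchicine removed); pin compounds in dose-response; incubate 72 h, 37 degree C, 5% CO2; add CellTiter-Glo, 5 min; read luminescence.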

[2] = Primary qHTS for inhibitors of nuclear receptor binding SET domain protein 2 (NSD2) in an isogenic RCH-ACV NSD2 p.E1099K mutant (9B) (AID 1645876); further: nearly all actives have a fitted effect of over 70% in size
[3] = Primary qHTS for inhibitors of nuclear receptor binding SET domain protein 2 (NSD2) in an RCH-ACV wild type WT cells (2C) (AID 1645877); details: activity change, negative = cell killing: at 44.9 µM (top of the series); further: nearly all actives have a fitted effect of over 70% in size; on activity change, negative = cell killing: on the % scale 0 is the no-effect control and ±100 the full control effect
[4] = Primary fluorescence-based thiol-reactive (MSTI) qHTS assay for identification of artifact compounds. (AID 1845221);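 further: thiol-reactive compounds lower the probe fluorescence signal; nearly all actives have a fitted effect of over 65% in size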
In short: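 Probe: MSTI 4 uM, PBS pH 7.4, 2% DMSO. Incubation 1 h, RT, light-protected. Readout fluorescence 525/598 nm.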

CRL-7250 = normal cell line; assay: Cytotoxic Profiling of Annotated Libraries Using Quantitative High-Throughput Screening (AID 1296008); details: Five cell lines viability, CellTiter-Glo ATP luminescence, 48-72 h; max response: hits give low values; further: nearly all actives have a fitted effect of over 60% in size; on max response: on the % scale 0 is the no-effect control and ±100 the full control effect
In short: (§1)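 Cytotoxicity was measured as CellTiter-Glo ATP luminescence, read after 10 min at room temperature. Compound treatment of the cells lasted 48 or 72 hr at 37 degrees Celsius in a qHTS format.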

HEK293 = assay: as above; details: Five cell lines viability, CellTiter-Glo ATP luminescence, 48-72 h; max response: hits give low values
In short: as §1

KB-3-1 = assay: as above; details: Five cell lines viability, CellTiter-Glo ATP luminescence, 48-72 h; max response: hits give low values
In short: as §1

NIH3T3 = assay: as above; details: Five cell lines viability, CellTiter-Glo ATP luminescence, 48-72 h; max response: hits give low values
In short: as §1

Tov-21-G = assay: Primary qHTS to identify gynecologic anti-cancer compounds using libraries of approved drugs and bioactive compounds (AID 1345084); details: Gynecologic cancer cell panel viability, ATPlite luminescence, 48 h; activity change, negative = cytotoxicity: at 57.5 µM (top of the series); further: nearly all actives have a fitted effect of over 55% in size; on activity change, negative = cytotoxicity: on the % scale 0 is the no-effect control and ±100 the full control effect
In short: (§2)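 Cell viability after 48 h drug treatment, ATPlite luminescence readout; five doses.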

C33A = assay: as above; details: Gynecologic cancer cell panel viability, ATPlite luminescence, 48 h; series mostly up to 57.5 µM
In short: as §2

CAOV3 = assay: as above; details: Gynecologic cancer cell panel viability, ATPlite luminescence, 48 h; series mostly up to 57.5 µM
In short: as §2

CASKI = assay: as above; details: Gynecologic cancer cell panel viability, ATPlite luminescence, 48 h; activity change, negative = cytotoxicity: at 57.5 µM (top of the series)
In short: as §2

Hek293T = assay: as above; details: Gynecologic cancer cell panel viability, ATPlite luminescence, 48 h, control line for the selectivity index; series mostly up to 57.5 µM
In short: as §2

PA-1 = assay: as above; details: Gynecologic cancer cell panel viability, ATPlite luminescence, 48 h; series mostly up to 57.5 µM
In short: as §2

SKOV3 = assay: as above; details: Gynecologic cancer cell panel viability, ATPlite luminescence, 48 h; series mostly up to 57.5 µM
In short: as §2

Tov112D = assay: as above; details: Gynecologic cancer cell panel viability, ATPlite luminescence, 48 h; activity change, negative = cytotoxicity: at 57.5 µM (top of the series)
In short: as §2

Es-2 = assay: as above; details: Gynecologic cancer cell panel viability, ATPlite luminescence, 48 h; series mostly up to 57.5 µM
In short: as §2

OV90 = assay: as above; details: Gynecologic cancer cell panel viability, ATPlite luminescence, 48 h; series mostly up to 57.5 µM
In short: as §2

JEG-3 = assay: as above; details: Gynecologic cancer cell panel viability, ATPlite luminescence, 48 h; series mostly up to 57.5 µM
In short: as §2
Potency means the concentration at half of the fitted maximal effect; tags describe the fitted curve by direction and shape.

COC(=O)c1ccc2c(c1)nc(NC(=O)c1ccccc1)n2CCCc1ccccc1
inconclusive: Potency [1] 10.3 µM [inhibitor, partial curve] | Potency [4] 0.267 µM [inhibitor, full curve] | Potency (CRL-7250) 6.51 µM [inhibitor, single point] | Potency (HEK293) 13 µM [inhibitor, partial curve, poor fit] | Potency (KB-3-1) 29.1 µM [inhibitor, single point]
inactive: Potency [2] | Potency [3] | max response (NIH3T3) 1.52% | Potency (Tov-21-G)

NCC1CCN(c2nccc(-c3ccc4ccccc4c3)n2)CC1
inactive: Potency [4]
inconclusive: Potency [1] 1.16 µM [inhibitor, full curve, poor fit] | Potency (CRL-7250) 16.4 µM [inhibitor, single point] | Potency (KB-3-1) 2.06 µM [inhibitor, full curve, poor fit] | Potency (NIH3T3) 18.4 µM [inhibitor, single point] | Potency (CASKI) 25.1 µM [cytotoxic, partial curve, poor fit] | Potency (Hek293T) 12.6 µM [cytotoxic, partial curve, poor fit] | Potency (Tov-21-G) 25.1 µM [cytotoxic, partial curve] | Potency (Tov112D) 15.8 µM [cytotoxic, partial curve, poor fit]
active: Potency (HEK293) 11.6 µM | Potency (C33A) 28.2 µM | Potency (CAOV3) 28.2 µM | Potency (PA-1) 14.1 µM | Potency (SKOV3) 22.4 µM

C=C(C)C(=O)OC1CC(CO)CCC/C(CO)=C/C2OC(=O)C(=C)C21 (stereo unspecified)
active: Potency [2] 2.53 µM | Potency [3] 2.01 µM | Potency (HEK293) 7.18 µM
inconclusive: Potency [1] 11.4 µM [inhibitor, single point] | Potency (CRL-7250) 20.2 µM [inhibitor, single point] | Potency (KB-3-1) 14.3 µM [inhibitor, single point] | Potency (NIH3T3) 12.8 µM [inhibitor, single point] | Potency (Es-2) 10 µM [cytotoxic, single point] | Potency (Hek293T) 11.2 µM [cytotoxic, single point] | Potency (PA-1) 28.2 µM [cytotoxic, single point] | Potency (Tov-21-G) 10 µM [cytotoxic, partial curve]

C=CS(=O)(=O)NC1CCN(C(=O)CNc2cc(I)c(Cl)cc2OC)CC1
active: Potency [2] 4.59 µM | Potency (HEK293) 8.2 µM | Potency (PA-1) 10 µM
inactive: Potency (SKOV3)
inconclusive: Potency [4] 6.7 µM [inhibitor, partial curve] | Potency (CRL-7250) 20.6 µM [inhibitor, single point] | Potency (KB-3-1) 18.4 µM [inhibitor, single point] | Potency (NIH3T3) 29.1 µM [inhibitor, single point] | Potency (C33A) 39.8 µM [cytotoxic, single point] | Potency (CAOV3) 39.8 µM [cytotoxic, single point] | Potency (CASKI) 20 µM [cytotoxic, partial curve, poor fit] | Potency (Es-2) 35.5 µM [cytotoxic, single point] | Potency (Hek293T) 22.4 µM [cytotoxic, single point] | Potency (OV90) 39.8 µM [cytotoxic, single point] | Potency (Tov-21-G) 31.6 µM [cytotoxic, single point] | Potency (Tov112D) 28.2 µM [cytotoxic, single point]

CCC(C)n1cc(C)c2c(C(=O)NCc3c(C)cc(C)[nH]c3=O)cc(-c3ccc(N4CCNCC4)nc3)cc21 (stereo unspecified)
inconclusive: Potency [1] 29.1 µM [inhibitor, single point] | Potency [4] 7.52 µM [inhibitor, partial curve, poor fit] | Potency (CRL-7250) 20.6 µM [inhibitor, single point] | Potency (HEK293) 18.4 µM [inhibitor, single point] | Potency (KB-3-1) 29.1 µM [inhibitor, single point] | Potency (NIH3T3) 23.1 µM [inhibitor, single point] | Potency (CAOV3) 25.1 µM [cytotoxic, single point]

O=C1C(Cc2ccc(O)cc2)N2C(=O)CCN(C(=O)NCc3ccccc3)C2CN1Cc1cccc2ccccc12 (stereo unspecified)
inactive: Potency [1]
inconclusive: Potency (KB-3-1) 7.31 µM [inhibitor, partial curve] | Potency (NIH3T3) 29.1 µM [inhibitor, single point] | Potency (C33A) 8.91 µM [cytotoxic, partial curve] | Potency (CAOV3) 39.8 µM [cytotoxic, single point] | Potency (Hek293T) 5.01 µM [cytotoxic, partial curve] | Potency (OV90) 8.91 µM [cytotoxic, full curve] | Potency (PA-1) 7.08 µM [cytotoxic, full curve, poor fit] | Potency (Tov112D) 8.91 µM [cytotoxic, partial curve]
active: Potency [2] 3.65 µM | Potency (CRL-7250) 4.61 µM | Potency (HEK293) 4.11 µM | Potency (Es-2) 8.91 µM | Potency (SKOV3) 20 µM | Potency (Tov-21-G) 7.94 µM

CC(=O)N[C@@H](CC(=O)O)C(=O)N[C@@H](CCC(=O)O)C(=O)N[C@H](C(=O)N[C@@H](CC(=O)O)C(=O)Nc1ccc2c(C)cc(=O)oc2c1)C(C)C
inconclusive: Potency [1] 23.1 µM [inhibitor, single point] | Potency [4] 2.99 µM [inhibitor, full curve] | Potency (CRL-7250) 18.4 µM [inhibitor, single point] | Potency (HEK293) 23.1 µM [inhibitor, single point] | Potency (KB-3-1) 20.6 µM [inhibitor, single point] | Potency (NIH3T3) 29.1 µM [inhibitor, single point] | Potency (C33A) 31.6 µM [cytotoxic, single point] | Potency (CAOV3) 39.8 µM [cytotoxic, single point] | Potency (CASKI) 31.6 µM [cytotoxic, single point] | Potency (Es-2) 39.8 µM [cytotoxic, single point] | Potency (PA-1) 39.8 µM [cytotoxic, single point] | Potency (SKOV3) 39.8 µM [cytotoxic, single point] | Potency (Tov-21-G) 35.5 µM [cytotoxic, single point]

COc1cc(O)c2c(c1)C1OC1C[C@H](O)[C@H](O)C(=O)/C=C\C[C@H](C)OC2=O (stereo partly specified)
active: Potency [3] 2.05 µM | Potency (CRL-7250) 20.6 µM | Potency (HEK293) 3.66 µM | Potency (NIH3T3) 2.06 µM | Potency (Tov-21-G) 17.8 µM
inconclusive: Potency [1] 29.1 µM [inhibitor, single point] | Potency (KB-3-1) 23.1 µM [inhibitor, single point] | Potency (C33A) 39.8 µM [cytotoxic, single point] | Potency (CAOV3) 39.8 µM [cytotoxic, single point] | Potency (CASKI) 22.4 µM [cytotoxic, single point] | Potency (Es-2) 12.6 µM [cytotoxic, partial curve, poor fit] | Potency (Hek293T) 25.1 µM [cytotoxic, single point] | Potency (JEG-3) 31.6 µM [cytotoxic, single point] | Potency (OV90) 28.2 µM [cytotoxic, single point] | Potency (PA-1) 22.4 µM [cytotoxic, single point] | Potency (Tov112D) 20 µM [cytotoxic, single point]

CNCC[C@@H](Oc1ccccc1C)c1ccccc1
inactive: max response (KB-3-1) -7.4%
inconclusive: Potency [2] 29.9 µM [inhibitor, single point] | Potency [3] 33.5 µM [inhibitor, single point] | Potency (CRL-7250) 26.6 µM [inhibitor, single point] | Potency (HEK293) 29.9 µM [inhibitor, single point] | Potency (NIH3T3) 33.5 µM [inhibitor, single point] | Potency (Es-2) 35.5 µM [cytotoxic, single point] | Potency (SKOV3) 6.31 µM [cytotoxic, partial curve, poor fit] | Potency (Tov-21-G) 25.1 µM [cytotoxic, single point]

COc1cc2nc(C3CC3)nc(N3CCN(c4ccccc4OC)CC3)c2cc1OC
inconclusive: Potency (KB-3-1) 25.9 µM [inhibitor, single point] | Potency (NIH3T3) 18.4 µM [inhibitor, partial curve, poor fit] | Potency (SKOV3) 2.24 µM [cytotoxic, single point]
inactive: max response (CRL-7250) -2.72% | Potency (CASKI)
active: Potency (HEK293) 18.4 µM

Cc1ccc(CCCO)c(NCc2ccc3nc(NCCCN4CCOCC4)n(Cc4nc(C)ccc4O)c3c2)c1
active: Potency [3] 11.5 µM | Potency (CRL-7250) 23.1 µM
inconclusive: Potency [1] 29.1 µM [inhibitor, single point] | Potency [4] 1.68 µM [inhibitor, full curve] | Potency (HEK293) 16.4 µM [inhibitor, single point] | Potency (KB-3-1) 20.6 µM [inhibitor, single point] | Potency (NIH3T3) 29.1 µM [inhibitor, single point] | Potency (CAOV3) 3.55 µM [cytotoxic, full curve] | Potency (OV90) 12.6 µM [cytotoxic, partial curve, poor fit] | Potency (PA-1) 11.2 µM [cytotoxic, partial curve] | Potency (SKOV3) 39.8 µM [cytotoxic, single point]

C/C=C\NC(=O)C1NC(=O)C(CC(N)=O)NC(=O)C(NC(=O)C(=O)C(C)CC)Cc2ccc(O)c(c2)-c2cccc3c2NC(=O)C3(O)C1O (stereo unspecified)
inactive: Potency (CASKI)
inconclusive: Potency [2] 9.63 µM [inhibitor, single point] | Potency [3] 9.63 µM [inhibitor, single point] | Potency (CRL-7250) 5.44 µM [inhibitor, single point] | Potency (HEK293) 8.62 µM [inhibitor, single point] | Potency (KB-3-1) 6.11 µM [inhibitor, single point] | Potency (CAOV3) 0.501 µM [cytotoxic, single point] | Potency (PA-1) 10 µM [cytotoxic, single point]
active: Potency (Tov-21-G) 4.47 µM
